# According to paper PMC12820563, “FoxP3 forms a head-to-head dimer in vivo and stabilizes its multimerization on adjacent microsatellites”:
# Some of the results follow.
# Biological target: T1, MBP-FoxP1dN (Mus musculus, UniProt P58462 326-579)
# T1 sequence: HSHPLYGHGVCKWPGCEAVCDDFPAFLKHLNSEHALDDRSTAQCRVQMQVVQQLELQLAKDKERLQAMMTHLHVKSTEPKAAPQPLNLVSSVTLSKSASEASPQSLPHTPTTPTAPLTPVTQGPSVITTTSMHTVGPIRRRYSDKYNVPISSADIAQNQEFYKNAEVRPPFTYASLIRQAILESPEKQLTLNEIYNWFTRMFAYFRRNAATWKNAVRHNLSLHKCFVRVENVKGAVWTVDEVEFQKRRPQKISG
# Assay: PD-seq (MBP pull-down with sequencing); 20 mM Tris-HCl pH 7.5, 100 mM NaCl, 1.5 mM MgCl2, 0.4 uM protein, 0.1 uM dsDNA library, 30 min, room temperature, amylose pull-down; high values mean tight binding
# Conditions: protein: recombinant; tags: His6-MBP; chain copies: 2; dsDNA, one strand shown
# Procedure, shortened: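 Mouse FoxP3 or FoxP1 fragment lacking the N-terminus, His6-MBP-tagged and expressed in E. coli, was incubated at 0.4 µM with 0.1 µM Klenow-filled degenerate double-stranded DNA library for 30 min at room temperature in Tris pH 7.5 buffer with NaCl and MgCl2. Complexes captured on amylose resin were washed three times and their DNA sequenced on Illumina. Binding is reads-per-million enrichment of pull-down over input, replicates pooled.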
row,Sequence,binding signal
1,GATGATTGTTCTCCCAGCTGATGAATTCTTAGCGTCGAGTAAACAAATTTTCCTAATCTTTCTGTTCAAGCGCCATCTAC,0.944 RPM ratio (pull-down/input)
2,GATGATTGTTCTCCCAGCTGATGAATTTGACACTTCGAGTAAACAAATTTTCCTAATCTTTCTGTTCAAGCGCCATCTAC,0.926 RPM ratio (pull-down/input)
3,GATGATTGTTCTCCCAGCTGATGAATTTATCAAATCGAGTAAACAAATTTTCCTAATCTTTCTGTTCAAGCGCCATCTAC,1.28 RPM ratio (pull-down/input)
4,GATGATTGTTCTCCCAGCTGATGAATTCGATCGCTCGAGTAAACAAATTTTCCTAATCTTTCTGTTCAAGCGCCATCTAC,0.768 RPM ratio (pull-down/input)
5,GATGATTGTTCTCCCAGCTGATGAATTATCGTCTTCGAGTAAACAAATTTTCCTAATCTTTCTGTTCAAGCGCCATCTAC,0.967 RPM ratio (pull-down/input)
6,GATGATTGTTCTCCCAGCTGATGAATTGATTCGGTCGAGTAAACAAATTTTCCTAATCTTTCTGTTCAAGCGCCATCTAC,0.987 RPM ratio (pull-down/input)
7,GATGATTGTTCTCCCAGCTGATGAATTTCTCACGTCGAGTAAACAAATTTTCCTAATCTTTCTGTTCAAGCGCCATCTAC,1.01 RPM ratio (pull-down/input)
8,GATGATTGTTCTCCCAGCTGATGAATTAGATTCTTCGAGTAAACAAATTTTCCTAATCTTTCTGTTCAAGCGCCATCTAC,0.894 RPM ratio (pull-down/input)
9,GATGATTGTTCTCCCAGCTGATGAATTGTTGACATCGAGTAAACAAATTTTCCTAATCTTTCTGTTCAAGCGCCATCTAC,2.54 RPM ratio (pull-down/input)
10,GATGATTGTTCTCCCAGCTGATGAATTGTACCCCTCGAGTAAACAAATTTTCCTAATCTTTCTGTTCAAGCGCCATCTAC,0.886 RPM ratio (pull-down/input)
11,GATGATTGTTCTCCCAGCTGATGAATTTCAGGGATCGAGTAAACAAATTTTCCTAATCTTTCTGTTCAAGCGCCATCTAC,0.816 RPM ratio (pull-down/input)
12,GATGATTGTTCTCCCAGCTGATGAATTTACTCGGTCGAGTAAACAAATTTTCCTAATCTTTCTGTTCAAGCGCCATCTAC,1.12 RPM ratio (pull-down/input)
13,GATGATTGTTCTCCCAGCTGATGAATTGAGTATTTCGAGTAAACAAATTTTCCTAATCTTTCTGTTCAAGCGCCATCTAC,0.945 RPM ratio (pull-down/input)
14,GATGATTGTTCTCCCAGCTGATGAATTCGACCCATCGAGTAAACAAATTTTCCTAATCTTTCTGTTCAAGCGCCATCTAC,0.804 RPM ratio (pull-down/input)
15,GATGATTGTTCTCCCAGCTGATGAATTCCGAATCTCGAGTAAACAAATTTTCCTAATCTTTCTGTTCAAGCGCCATCTAC,0.802 RPM ratio (pull-down/input)
16,GATGATTGTTCTCCCAGCTGATGAATTAATTAAGTCGAGTAAACAAATTTTCCTAATCTTTCTGTTCAAGCGCCATCTAC,0.998 RPM ratio (pull-down/input)
17,GATGATTGTTCTCCCAGCTGATGAATTTACTTGTTCGAGTAAACAAATTTTCCTAATCTTTCTGTTCAAGCGCCATCTAC,1.3 RPM ratio (pull-down/input)
18,GATGATTGTTCTCCCAGCTGATGAATTTCCCCTCTCGAGTAAACAAATTTTCCTAATCTTTCTGTTCAAGCGCCATCTAC,0.754 RPM ratio (pull-down/input)
19,GATGATTGTTCTCCCAGCTGATGAATTGCAAGGTTCGAGTAAACAAATTTTCCTAATCTTTCTGTTCAAGCGCCATCTAC,1.02 RPM ratio (pull-down/input)
20,GATGATTGTTCTCCCAGCTGATGAATTAAACGCCTCGAGTAAACAAATTTTCCTAATCTTTCTGTTCAAGCGCCATCTAC,0.92 RPM ratio (pull-down/input)
21,GATGATTGTTCTCCCAGCTGATGAATTAATCACTTCGAGTAAACAAATTTTCCTAATCTTTCTGTTCAAGCGCCATCTAC,1.02 RPM ratio (pull-down/input)

row,Sequence,binding signal
1,GATGATTGTTCTCCCAGCTGATGAATTTGGCTTCTCGAGTAAACAAATTTTCCTAATCTTTCTGTTCAAGCGCCATCTAC,0.859 RPM ratio (pull-down/input)
2,GATGATTGTTCTCCCAGCTGATGAATTACTATATTCGAGTAAACAAATTTTCCTAATCTTTCTGTTCAAGCGCCATCTAC,1.23 RPM ratio (pull-down/input)
3,GATGATTGTTCTCCCAGCTGATGAATTGACCATTTCGAGTAAACAAATTTTCCTAATCTTTCTGTTCAAGCGCCATCTAC,0.923 RPM ratio (pull-down/input)
4,GATGATTGTTCTCCCAGCTGATGAATTCGTTTGTTCGAGTAAACAAATTTTCCTAATCTTTCTGTTCAAGCGCCATCTAC,0.998 RPM ratio (pull-down/input)
5,GATGATTGTTCTCCCAGCTGATGAATTGCCTTATTCGAGTAAACAAATTTTCCTAATCTTTCTGTTCAAGCGCCATCTAC,1.05 RPM ratio (pull-down/input)
6,GATGATTGTTCTCCCAGCTGATGAATTCTTTTTGTCGAGTAAACAAATTTTCCTAATCTTTCTGTTCAAGCGCCATCTAC,0.964 RPM ratio (pull-down/input)
7,GATGATTGTTCTCCCAGCTGATGAATTTTTATCCTCGAGTAAACAAATTTTCCTAATCTTTCTGTTCAAGCGCCATCTAC,0.902 RPM ratio (pull-down/input)
8,GATGATTGTTCTCCCAGCTGATGAATTCCGGTAGTCGAGTAAACAAATTTTCCTAATCTTTCTGTTCAAGCGCCATCTAC,0.777 RPM ratio (pull-down/input)
9,GATGATTGTTCTCCCAGCTGATGAATTCTTACTATCGAGTAAACAAATTTTCCTAATCTTTCTGTTCAAGCGCCATCTAC,1.02 RPM ratio (pull-down/input)
10,GATGATTGTTCTCCCAGCTGATGAATTATTCTGCTCGAGTAAACAAATTTTCCTAATCTTTCTGTTCAAGCGCCATCTAC,0.977 RPM ratio (pull-down/input)
11,GATGATTGTTCTCCCAGCTGATGAATTGCTACTATCGAGTAAACAAATTTTCCTAATCTTTCTGTTCAAGCGCCATCTAC,1.21 RPM ratio (pull-down/input)
12,GATGATTGTTCTCCCAGCTGATGAATTAAGTCCATCGAGTAAACAAATTTTCCTAATCTTTCTGTTCAAGCGCCATCTAC,0.92 RPM ratio (pull-down/input)
13,GATGATTGTTCTCCCAGCTGATGAATTGTCGTCTTCGAGTAAACAAATTTTCCTAATCTTTCTGTTCAAGCGCCATCTAC,1.1 RPM ratio (pull-down/input)
14,GATGATTGTTCTCCCAGCTGATGAATTGTCCAGGTCGAGTAAACAAATTTTCCTAATCTTTCTGTTCAAGCGCCATCTAC,0.838 RPM ratio (pull-down/input)
15,GATGATTGTTCTCCCAGCTGATGAATTACTCCGCTCGAGTAAACAAATTTTCCTAATCTTTCTGTTCAAGCGCCATCTAC,0.875 RPM ratio (pull-down/input)
16,GATGATTGTTCTCCCAGCTGATGAATTCCTTGACTCGAGTAAACAAATTTTCCTAATCTTTCTGTTCAAGCGCCATCTAC,0.771 RPM ratio (pull-down/input)
17,GATGATTGTTCTCCCAGCTGATGAATTTACCGAGTCGAGTAAACAAATTTTCCTAATCTTTCTGTTCAAGCGCCATCTAC,1.13 RPM ratio (pull-down/input)
18,GATGATTGTTCTCCCAGCTGATGAATTCCCACGATCGAGTAAACAAATTTTCCTAATCTTTCTGTTCAAGCGCCATCTAC,0.81 RPM ratio (pull-down/input)
19,GATGATTGTTCTCCCAGCTGATGAATTAATGTTGTCGAGTAAACAAATTTTCCTAATCTTTCTGTTCAAGCGCCATCTAC,2.64 RPM ratio (pull-down/input)
20,GATGATTGTTCTCCCAGCTGATGAATTGGAATAATCGAGTAAACAAATTTTCCTAATCTTTCTGTTCAAGCGCCATCTAC,1.14 RPM ratio (pull-down/input)
21,GATGATTGTTCTCCCAGCTGATGAATTTCCTGGCTCGAGTAAACAAATTTTCCTAATCTTTCTGTTCAAGCGCCATCTAC,0.756 RPM ratio (pull-down/input)

row,Sequence,binding signal
1,GATGATTGTTCTCCCAGCTGATGAATTATTTTGCTCGAGTAAACAAATTTTCCTAATCTTTCTGTTCAAGCGCCATCTAC,1.29 RPM ratio (pull-down/input)
2,GATGATTGTTCTCCCAGCTGATGAATTGACCGGCTCGAGTAAACAAATTTTCCTAATCTTTCTGTTCAAGCGCCATCTAC,0.831 RPM ratio (pull-down/input)
3,GATGATTGTTCTCCCAGCTGATGAATTTAAAAATTCGAGTAAACAAATTTTCCTAATCTTTCTGTTCAAGCGCCATCTAC,0.915 RPM ratio (pull-down/input)
4,GATGATTGTTCTCCCAGCTGATGAATTGCCGCTCTCGAGTAAACAAATTTTCCTAATCTTTCTGTTCAAGCGCCATCTAC,0.884 RPM ratio (pull-down/input)
5,GATGATTGTTCTCCCAGCTGATGAATTAGTATAATCGAGTAAACAAATTTTCCTAATCTTTCTGTTCAAGCGCCATCTAC,1.2 RPM ratio (pull-down/input)
6,GATGATTGTTCTCCCAGCTGATGAATTACTTATCTCGAGTAAACAAATTTTCCTAATCTTTCTGTTCAAGCGCCATCTAC,1.09 RPM ratio (pull-down/input)
7,GATGATTGTTCTCCCAGCTGATGAATTATATGGTTCGAGTAAACAAATTTTCCTAATCTTTCTGTTCAAGCGCCATCTAC,1.01 RPM ratio (pull-down/input)
8,GATGATTGTTCTCCCAGCTGATGAATTGGGGCTTTCGAGTAAACAAATTTTCCTAATCTTTCTGTTCAAGCGCCATCTAC,0.874 RPM ratio (pull-down/input)
9,GATGATTGTTCTCCCAGCTGATGAATTTCCACCGTCGAGTAAACAAATTTTCCTAATCTTTCTGTTCAAGCGCCATCTAC,0.801 RPM ratio (pull-down/input)
10,GATGATTGTTCTCCCAGCTGATGAATTTACTTGGTCGAGTAAACAAATTTTCCTAATCTTTCTGTTCAAGCGCCATCTAC,1.23 RPM ratio (pull-down/input)
11,GATGATTGTTCTCCCAGCTGATGAATTCTCTGTGTCGAGTAAACAAATTTTCCTAATCTTTCTGTTCAAGCGCCATCTAC,0.889 RPM ratio (pull-down/input)
12,GATGATTGTTCTCCCAGCTGATGAATTAATAACGTCGAGTAAACAAATTTTCCTAATCTTTCTGTTCAAGCGCCATCTAC,1.19 RPM ratio (pull-down/input)
13,GATGATTGTTCTCCCAGCTGATGAATTGGGGTTATCGAGTAAACAAATTTTCCTAATCTTTCTGTTCAAGCGCCATCTAC,0.954 RPM ratio (pull-down/input)
14,GATGATTGTTCTCCCAGCTGATGAATTCAATCGCTCGAGTAAACAAATTTTCCTAATCTTTCTGTTCAAGCGCCATCTAC,0.863 RPM ratio (pull-down/input)
15,GATGATTGTTCTCCCAGCTGATGAATTAGAGGACTCGAGTAAACAAATTTTCCTAATCTTTCTGTTCAAGCGCCATCTAC,0.842 RPM ratio (pull-down/input)
16,GATGATTGTTCTCCCAGCTGATGAATTCCGGTGCTCGAGTAAACAAATTTTCCTAATCTTTCTGTTCAAGCGCCATCTAC,0.821 RPM ratio (pull-down/input)
17,GATGATTGTTCTCCCAGCTGATGAATTTCCTCCTTCGAGTAAACAAATTTTCCTAATCTTTCTGTTCAAGCGCCATCTAC,0.839 RPM ratio (pull-down/input)
18,GATGATTGTTCTCCCAGCTGATGAATTTTCTCAATCGAGTAAACAAATTTTCCTAATCTTTCTGTTCAAGCGCCATCTAC,1.07 RPM ratio (pull-down/input)
19,GATGATTGTTCTCCCAGCTGATGAATTGGACGTCTCGAGTAAACAAATTTTCCTAATCTTTCTGTTCAAGCGCCATCTAC,0.796 RPM ratio (pull-down/input)
20,GATGATTGTTCTCCCAGCTGATGAATTAAAAAGTTCGAGTAAACAAATTTTCCTAATCTTTCTGTTCAAGCGCCATCTAC,0.935 RPM ratio (pull-down/input)
21,GATGATTGTTCTCCCAGCTGATGAATTCTATGCGTCGAGTAAACAAATTTTCCTAATCTTTCTGTTCAAGCGCCATCTAC,1.02 RPM ratio (pull-down/input)
